{
  "source": "paper PMC10726135",
  "note": "This is one part of the list. At the low end of the ranking the order means little. Measured with an extract: partners may take part in the binding.",
  "data": [
    {"molecular_target": "T1, HNF4alpha2 (COS-7 nuclear extract) (UniProt P41235)", "T1 sequence": "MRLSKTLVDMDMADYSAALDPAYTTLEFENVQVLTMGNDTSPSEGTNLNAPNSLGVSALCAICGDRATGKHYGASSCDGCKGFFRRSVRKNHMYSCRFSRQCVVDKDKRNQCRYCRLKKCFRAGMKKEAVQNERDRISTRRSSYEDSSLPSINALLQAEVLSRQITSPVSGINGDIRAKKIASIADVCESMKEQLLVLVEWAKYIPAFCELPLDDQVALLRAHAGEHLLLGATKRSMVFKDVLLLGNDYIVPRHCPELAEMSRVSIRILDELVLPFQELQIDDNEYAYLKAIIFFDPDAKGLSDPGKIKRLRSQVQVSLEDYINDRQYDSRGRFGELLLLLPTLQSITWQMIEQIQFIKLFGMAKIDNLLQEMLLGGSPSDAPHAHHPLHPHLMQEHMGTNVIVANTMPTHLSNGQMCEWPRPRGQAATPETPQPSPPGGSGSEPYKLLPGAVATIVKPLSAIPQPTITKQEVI", "assay": "protein-binding microarray", "conditions": "COS-7 nuclear extract on double-stranded Agilent 4x180k PBM; binding buffer, salt, pH and temperature not given; high values mean tight binding; double strand, one strand shown; sequences stand for … in …GCCTAGGGAGATTAGAGTATCGGTCGA", "values": [
      {"sequence": "TGACGCTTTAAGTAGGCACTATTATCCCCC", "binding signal (log2 normalized intensity)": 3.35},
      {"sequence": "TGCTCTTATTGATTGCCTTTCATGTACTGT", "binding signal (log2 normalized intensity)": 2.49},
      {"sequence": "ATATGAAAACAAAGGAAACCAAACATTGAA", "binding signal (log2 normalized intensity)": -1.06},
      {"sequence": "CAAATAAAGTTTGAGGAGAGTCAAAGGTTA", "binding signal (log2 normalized intensity)": 3.24},
      {"sequence": "CCACACAAACCCAGTTTGCATTTTCATGGA", "binding signal (log2 normalized intensity)": 0.36},
      {"sequence": "TGTTTGCACTGAGGAATGGAAGGACCTTGG", "binding signal (log2 normalized intensity)": 1.53},
      {"sequence": "TTTGCCCTTTGAGCTTCTGTCTTGGACTGC", "binding signal (log2 normalized intensity)": 3.59},
      {"sequence": "TTGCAGACTGGTTCTTGGTCAGCTCCTGGG", "binding signal (log2 normalized intensity)": -0.63},
      {"sequence": "CAAGAAACCTTTCCCTCTCTCCTGGTTTGG", "binding signal (log2 normalized intensity)": 1.5},
      {"sequence": "AGTTTTTCCCCTTGGTGGATTCCGTGGTAA", "binding signal (log2 normalized intensity)": 2},
      {"sequence": "TGCGCATGTTCCCACGAAACCCTAAACCTG", "binding signal (log2 normalized intensity)": -1.13},
      {"sequence": "GAGCTGTGATTGCGCCACTGTACTCCTGTC", "binding signal (log2 normalized intensity)": -0.13},
      {"sequence": "CAGTCCCTGTACACGGTTCTTGACCTGTGA", "binding signal (log2 normalized intensity)": 3.61},
      {"sequence": "AGCGGCAGCGCCTCCCGGTCACTACAACAA", "binding signal (log2 normalized intensity)": -1.19},
      {"sequence": "GGCCTGCAAGCTCCTGGTTGGGGCCTCCCT", "binding signal (log2 normalized intensity)": -1.21},
      {"sequence": "TCCCACCGTGTGTGCACTTTAAATTAATCT", "binding signal (log2 normalized intensity)": 0.673},
      {"sequence": "GGGCTTAATCTTTCCTGCCTGCCGGCTCTG", "binding signal (log2 normalized intensity)": -1.12},
      {"sequence": "GAATGCACCCTTTTGACCACACAGCAAGGC", "binding signal (log2 normalized intensity)": 0.133},
      {"sequence": "AGGAAGGACATGGTAAAGATGACCAGCGTG", "binding signal (log2 normalized intensity)": -1.08},
      {"sequence": "CCTTTGGAGGGGAAGCTGGGCAGGCGCCGA", "binding signal (log2 normalized intensity)": -1.15},
      {"sequence": "GGATTAACCACAGAAATGCCGCTAATGTAT", "binding signal (log2 normalized intensity)": -0.192},
      {"sequence": "CTTTAAACATTCTTCTCAGTGTTTTGGGTC", "binding signal (log2 normalized intensity)": 2.04},
      {"sequence": "CTCTAAGCACGGCCAGGATTAACCACAGAA", "binding signal (log2 normalized intensity)": -1.2},
      {"sequence": "TCCTAATGCCCAAATGAATAATCCCCTCCT", "binding signal (log2 normalized intensity)": 3.67},
      {"sequence": "ACAACTTTCATTGAACTGCTGGGGGTAAAG", "binding signal (log2 normalized intensity)": 0.398},
      {"sequence": "AACCTTCATCTCTCTTTGTTGACATCTGCT", "binding signal (log2 normalized intensity)": 0.528},
      {"sequence": "GGTTGCCCAGGGAGAGCTGGACTTTCATCT", "binding signal (log2 normalized intensity)": 4.77},
      {"sequence": "TGCTAACAATGTGATTTATGAAGGGGGGTG", "binding signal (log2 normalized intensity)": -0.919},
      {"sequence": "TCCTCTCAAAGTCCACCCGGCCAGCAGATG", "binding signal (log2 normalized intensity)": 2.46},
      {"sequence": "GAAGGCCCTGAACTCCCAGCCTCCAAGATG", "binding signal (log2 normalized intensity)": 0.413},
      {"sequence": "TACAGACAGAAGCCAGAGGCAGCAAGGTCA", "binding signal (log2 normalized intensity)": -1.06},
      {"sequence": "TGCCCTTTGGCCCCCAGAGCCCCGTGTCTC", "binding signal (log2 normalized intensity)": 4.76},
      {"sequence": "TACTAGCCATTTCGGCACCTTCTACACAGC", "binding signal (log2 normalized intensity)": -0.612},
      {"sequence": "TCTCTGTAAACTGGCCAGAAGGTCAGAGAT", "binding signal (log2 normalized intensity)": 1.66},
      {"sequence": "CTCCTCCCCTTGAGACTTTAATCTCTCCTC", "binding signal (log2 normalized intensity)": 2.07},
      {"sequence": "TGGGAAGTCCAAAGTCTGCAGGGTAGGCAG", "binding signal (log2 normalized intensity)": 2.39},
      {"sequence": "ATTCTCTGGAAAAGGTCTGCTGTACATATT", "binding signal (log2 normalized intensity)": 1.64},
      {"sequence": "GAAGAAGTGTTAAGGACAACCGGTAGCACA", "binding signal (log2 normalized intensity)": -0.995},
      {"sequence": "GCCATCCAGGGCATTGCCGTTCAGGGCCAC", "binding signal (log2 normalized intensity)": -1.16},
      {"sequence": "GCCTGACTCCCTGACGCCATCTGGCGTCCC", "binding signal (log2 normalized intensity)": -0.532},
      {"sequence": "CAGAGGTCAAGGCTGCAGCGAGCCACTGTA", "binding signal (log2 normalized intensity)": -1.21},
      {"sequence": "CCCCCATTAGAGGCACACTCTATTATGTAA", "binding signal (log2 normalized intensity)": 1.9},
      {"sequence": "ACTCCACATATTGTAGATAATACTGTGTCA", "binding signal (log2 normalized intensity)": 0.275},
      {"sequence": "CATCTTTATCATGTGGTATTAACATGTAAA", "binding signal (log2 normalized intensity)": 1.61},
      {"sequence": "TTCAGTCGGCTCTCAGCGGAACTTTCCTCT", "binding signal (log2 normalized intensity)": -1.24},
      {"sequence": "TTGGGTGGAGGGGAGGTTATCTTGGGGCTG", "binding signal (log2 normalized intensity)": -1.21},
      {"sequence": "TTAACAGATGAGGACATTTCAGCAAAGTTC", "binding signal (log2 normalized intensity)": -0.483},
      {"sequence": "ATGCCCTTATCTCATACCTTGCATGCACAA", "binding signal (log2 normalized intensity)": 0.992},
      {"sequence": "CATGTGGGTCAACAGACAAATGAAAGAGCT", "binding signal (log2 normalized intensity)": -0.927},
      {"sequence": "AGTTTGAAGCTTAGAGAGAGAAATTGCTTA", "binding signal (log2 normalized intensity)": -1.13},
      {"sequence": "TTGAATCCTTATCTGTAGAAGGCAAAGCTT", "binding signal (log2 normalized intensity)": -1.16},
      {"sequence": "TTGACTTTTTGTGGGGGCAGATGTTTCTTT", "binding signal (log2 normalized intensity)": 2.03},
      {"sequence": "TTACGGGCAGAGCTGGGGTGCCTGATAATG", "binding signal (log2 normalized intensity)": -0.34},
      {"sequence": "CAGGCACATTCCAGGACCTTTGCTCATGTC", "binding signal (log2 normalized intensity)": 2.81},
      {"sequence": "TGTCCCTCCTGACCTTTGGACTTGATAGAG", "binding signal (log2 normalized intensity)": 9.11},
      {"sequence": "ACCAAGGAGGTGCTGACAGGCCCTCTGATA", "binding signal (log2 normalized intensity)": -1.04},
      {"sequence": "ACAGCCACATGCTAACACACCTGGCTATTC", "binding signal (log2 normalized intensity)": -1.12},
      {"sequence": "TGTCATGACCTTCGCTCTTGATGGGTTTGC", "binding signal (log2 normalized intensity)": 3.01},
      {"sequence": "GGTGTGAATATTTAAGATTCCAGCTCTCGG", "binding signal (log2 normalized intensity)": -1.08},
      {"sequence": "CCGTCTCTCACCAAATCCCTGCCCACATCC", "binding signal (log2 normalized intensity)": 2.61},
      {"sequence": "ATGTTTGGGAGCCTTGCACACTCGCCTGGC", "binding signal (log2 normalized intensity)": -1.09},
      {"sequence": "TGAAGCTTGCAACAAAGGGGTTTCTAAGAA", "binding signal (log2 normalized intensity)": -1.32},
      {"sequence": "GACCCTTGCACTCATACTTGAAGACATTCC", "binding signal (log2 normalized intensity)": 2.74},
      {"sequence": "GACAGCAGTAGAAAACAGAGAAGCCGTGGT", "binding signal (log2 normalized intensity)": -1.04},
      {"sequence": "AATCAACCTTTGATCGTTTGCATGCAGGGC", "binding signal (log2 normalized intensity)": 3.25},
      {"sequence": "CAGAATTACTGACTCCACAGTGGGGCAGAT", "binding signal (log2 normalized intensity)": -0.989},
      {"sequence": "GATACAACGGTTCAAAGGACAGACTTTGGA", "binding signal (log2 normalized intensity)": 3.39},
      {"sequence": "AAAGCCTAGGCTCCAGGGCACTGCCCTTTG", "binding signal (log2 normalized intensity)": 3},
      {"sequence": "AAGAAAGGGGAGATAATGCCAGAAAGGTCT", "binding signal (log2 normalized intensity)": -1.06},
      {"sequence": "AAGTGCGTCCTGTGGCAAAGGTGAATGACC", "binding signal (log2 normalized intensity)": 2.58},
      {"sequence": "CAAAACCCAGTTCATAGGTCAATTCTTTGA", "binding signal (log2 normalized intensity)": 2.88},
      {"sequence": "TACTCTCTCTTCTGGAGGAGGATCAGGTTT", "binding signal (log2 normalized intensity)": 1.47},
      {"sequence": "GTGTGTGGCCTGCACAGTTGCACAATGTCA", "binding signal (log2 normalized intensity)": -0.828},
      {"sequence": "TTTGTAAGTACATTAATATACTGTGTATAC", "binding signal (log2 normalized intensity)": 1.24},
      {"sequence": "GAAATCTCAGTCAAATGCAAAGGCAAACAG", "binding signal (log2 normalized intensity)": 0.26},
      {"sequence": "GATGAATAGGGACGTTCTACTTGTTAGTAA", "binding signal (log2 normalized intensity)": 0.842},
      {"sequence": "AATCGCATTGCAAAATCCATCTAAATGGCA", "binding signal (log2 normalized intensity)": -0.83},
      {"sequence": "TGATCTTTGAAACATAACAGCAACAACACA", "binding signal (log2 normalized intensity)": 0.541},
      {"sequence": "GCTCTAGACATCGACCTTTGTGGGCTTCAG", "binding signal (log2 normalized intensity)": 2.69},
      {"sequence": "GGGGAAAGAGCTGAGGAAAAAAGTTTGAAA", "binding signal (log2 normalized intensity)": -1.12},
      {"sequence": "ATGGTGGAGGGTCTTGCTTTGATGTTGATG", "binding signal (log2 normalized intensity)": 1.58},
      {"sequence": "TATCTTGTGACCTTTGACTCATTATCCCCC", "binding signal (log2 normalized intensity)": 6.24},
      {"sequence": "GGTTTTCACAACCTCCCTTTGAAGGAGCCA", "binding signal (log2 normalized intensity)": -1.08},
      {"sequence": "AAACCTTTAATGATGAGTCCAAGTTCCACA", "binding signal (log2 normalized intensity)": 2.31},
      {"sequence": "CCCCACTCCACCTACGCTACGCACCAGGCA", "binding signal (log2 normalized intensity)": -0.756},
      {"sequence": "TATATTCAACCCCCACTTCCTGACTTGGCC", "binding signal (log2 normalized intensity)": 3.6},
      {"sequence": "TGCAGAGCTTAGTTTGCCACGGTCAGCAAT", "binding signal (log2 normalized intensity)": -0.852},
      {"sequence": "CAACCCAAAGCATGTCCAGAATCCTAACTG", "binding signal (log2 normalized intensity)": -1.04},
      {"sequence": "GGAGGAGCTGTTTGACATCCAAAGTTTCCT", "binding signal (log2 normalized intensity)": 0.813},
      {"sequence": "GCAGCTGAGGATTGTCAGGCCAGTAGGTCA", "binding signal (log2 normalized intensity)": 1.56},
      {"sequence": "AAAGCTTCTGCGGAAATAATTGATTCAGGT", "binding signal (log2 normalized intensity)": 1.06},
      {"sequence": "ATTCATAAAATTACGCCACAGAGTTGCTGT", "binding signal (log2 normalized intensity)": 0.195},
      {"sequence": "ATTAAGATCAAAGAATTCCTAATAATACTG", "binding signal (log2 normalized intensity)": -1.17}
    ]}
  ]
}
